Measurements published in ChEMBL document CHEMBL4888484, “Replenishing the malaria drug discovery pipeline: Screening and hit evaluation of the MMV Hit Generation Library 1 (HGL1) against asexual blood stage Plasmodium falciparum ,using a nano luciferase reporter read-out” (2022).
Among all 150,000 compounds or so, about 540 (0.36%) showed an effect of 50% or more. The list shows a part of the results.

Tested on: Plasmodium falciparum
Assay: Primary screen in NF54 nanoGlo assay, in single point, at 2uM, 72h; a lower Z score goes with more inhibition
Assay type: functional, Erythrocyte
Details: timepoint 72 hour

Compound | % Inhibition [%] | Z score
Cc1ccc(OC2CN(S(=O)(=O)N3CCCC3)C2)cc1 | -7 | 1.06
CC(C)N(C)CC(O)CN[C@H](C)c1ccccc1Cl (some centres not stated) | -10 | 1.28
CCn1cnnc1CC1CCN(S(=O)(=O)c2c(C)nn(C)c2C)CC1 | -1 | 0.14
CCOC(=O)Nc1nn(CN2CCOc3ccc(OC)cc3C2)c(=S)s1 | -7 | 1.15
COc1ccc(CC(=O)N2Cc3cncnc3C2)cc1 | -11 | 1.93
COc1ccc(OC)c(NC(=O)Cn2c(C)cc(-c3nnc(C)o3)c2C)c1 | -6 | 1.09
O=C(c1c[nH]nc1-c1ccccc1)N1CC[C@@]2(CCCN(CCc3ccccc3)C2)C1 | -1 | 0.09
Cc1nc(C)c(S(=O)(=O)NCc2ocnc2C)s1 | 34 | -3.85
Cc1ccc(-n2cc(-c3ccc(Cl)cc3)nc2NC(=O)CN(Cc2ccccc2)C(=O)c2ccc(Cl)cc2Cl)cc1 | -20 | 2.3
CCOC(=O)c1ccc(NC(=O)N2CCC(n3nnc4cc(C(=O)N(C)C)ccc43)CC2)cc1 | 2 | -0.22
CC(=O)Nc1nc(C(=O)N2CCOC(C)(C)[C@@H]2C)cs1 | -5 | 0.68
c1cncc(NC2CCN(CCCOc3ccc4c(c3)OCO4)CC2)c1 | -10 | 1.29
c1cnc(N2CCC[C@H](n3ccnc3-c3ccc4ccccc4n3)C2)nc1 | -2 | 0.23
NCc1ccc(F)c(-c2cccc3ccnn23)c1 | -5 | 0.45
O=C1C[C@H](CNC(=O)NCC2CCCCCC2)CN1 | -9 | 1.57
CC1(C)C2C(c3ccccc3)(c3ccccc3)N=NC21C (configuration not stated) | -3 | 0.4
CC(C)(C)c1ccc([C@@H]2CCCN2C(=O)c2cc[n+]([O-])cc2)cc1 | -7 | 0.98
CC(C)c1nocc1C(=O)N1CCC(c2ccc3[nH]ccc3c2)CC1 | -3 | 0.63
COc1ccc(N2CCN(Cc3nc(C(=O)Nc4ccccc4)co3)CC2)cc1 | -5 | 0.92
CCOC(=O)N1CCN(C(=O)CCc2cc3ccc(C)cc3nc2O)CC1 | -7 | 1.23
CCn1ncc(NC(=O)Cn2ccc3cc(-c4cncnc4)ccc32)n1 | -7 | 1.19
Cc1ccc2c(OC[C@@H]3CNC(=O)C3)cc(C)nc2c1 | -8 | 1.2

Compound | % Inhibition [%] | Z score
CC(=O)N1CCOC[C@H](Oc2ccc(C(F)(F)F)cn2)C1 | -5 | 0.83
COc1ccc2[nH]c(CN3CCC[C@H](N(C)CCc4ccccn4)C3)c(C)c2c1 | -11 | 1.01
O=C(NCC1CC(F)(F)C1)c1ccc[nH]1 | -3 | 0.39
CCC[C@]1(CO)CCCN1C(=O)c1ccc(N2CCCC2=O)cc1 | -4 | 0.66
CCC1(CC)C(=O)N(C)C(=O)N=C1Nc1ccc(OC)cc1 | -10 | 0.87
CC(C)C(=O)N1CCC(c2nc(-c3cccn3C)no2)CC1 | -15 | 2.03
CC(C)c1csc(C(=O)N(C[C@H]2CCCO2)c2ccncc2)n1 | -14 | 1.59
Cn1nc(-c2ccncc2)cc1CNC(=O)c1c(F)cccc1F | -20 | 2.62
CCn1nc(C)c(CNCc2cccnc2C)n1 | -2 | 0.22
O=C(Nc1nnc(Cc2ccsc2)s1)c1ccc(Cl)cn1 | -11 | 1.22
COCC(=O)N[C@H]1CN(C/C(C)=C/c2ccco2)C[C@@H]1C1CC1 | -6 | 1.04
CNc1ccnc(N2CCn3nc(CNS(C)(=O)=O)cc3C2)n1 | -13 | 1.26
CCc1ncoc1C(=O)NC(C)(C)c1cc(Cl)ccc1OC | 8 | -0.88
Cc1ccc(N(C)C(=O)C2CC2C(=O)O)cc1Cl (configuration not stated) | 2 | -0.37
Cc1cc(O)nc(C(=O)N2CC3(CCC3)c3ccccc32)c1 | -12 | 2.19
CCn1c(C)cc(C(=O)N2CC[C@](C(N)=O)(c3ccccc3)C2)c1C | -12 | 1.6
CC1(N2CCOCC2)CCN(c2ncc(C(F)(F)F)s2)CC1 | -5 | 0.84
COc1ncccc1C(=O)OCC(=O)N(C)C1CCCCC1C (configuration not stated) | -5 | 0.54
CN(Cc1ccsc1)c1cc([C@H]2C[C@@H](N)C2)nc(C2CC2)n1 | 16 | -1.91
CCOC1CC(NCc2ccc3c(c2)C(=O)NCC3)C1 (configuration not stated) | 12 | -1.39
Cc1nc(CN2C(=O)C3CC=CCC3C2=O)sc1C (configuration not stated) | 14 | -1.82
CC(C)(C)c1nc(Cn2cc(F)ccc2=O)no1 | -17 | 2.11

Compound | % Inhibition [%] | Z score
Cc1nn(C(C)C)c(C)c1CNC(=O)CCC1=NNC(=O)CC1 | 1 | -0.07
Cc1n[nH]cc1CNCCN1CCC[C@H](C)C1 | 15 | -2.18
COCCN(Cc1ccc(OC)c(OS(=O)(=O)c2cccc(C(F)(F)F)c2)c1)C(=O)c1ccccc1F | -7 | 1.24
N#Cc1nccnc1NCCCOC1CCCCC1 | -7 | 1.14
CC(C)c1nn(C)cc1C(=O)NCC1(C2CCC2)CCC1 | 28 | -3.2
Cc1oc(C(=O)N2CCC(C)(C)[C@@H](c3ccccc3)C2)cc1CO | 5 | -0.72
COc1nc2ncnc(OC)c2nc1C#N | 38 | -1.2
Cc1ccn2c(NC(C)(C)CC(C)(C)C)c(CC(C)C)nc2c1 | -21 | 2.32
CC(=O)N[C@H]1CCN(C(=O)NCCc2cccc(Cl)c2)C1 | -15 | 2.93
NC1(C(=O)N2CCc3[nH]nc(-c4cccc5ccccc45)c3C2)CCC1 | -7 | 0.98
Cc1ccc(CCC(=O)Nc2ccccc2-n2ncc3c(=O)[nH]cnc32)c(C)c1 | -8 | 1.22
CCC1CCCCC1N(C)c1ccc2nnnn2n1 (configuration not stated) | -11 | 1.68
c1cncc([C@@H]2CN(Cc3nccs3)CCO2)c1 | 0 | -0.05
COc1ccccc1N1CCN(C(=O)C[C@@H]2O[C@H](CNC(=O)c3ccc(C)cc3)[C@@H](O)[C@H]2O)CC1 | 14 | -1.58
O=C(NCCCn1ccnc1)C1CCCC1 | -8 | 0.91
CCCOc1cccc2c(N3CCNC(=O)C3)ccnc12 | -8 | 1.5
COc1cc(OC)c([C@H](C)NCCc2cn(C)cn2)cc1Cl | -5 | 0.83
O=C1Nc2cc(C(=O)N3CCN(Cc4ccc5c(c4)OCO5)CC3)ccc2N2CCCC[C@@H]12 | -3 | 0.51
CC[C@H]1C(=O)NCCN1CC=Cc1ccccn1 | -16 | 2.11
Cc1cc(NS(=O)(=O)c2ccc(N(C)C)nc2)cnc1N1CCCCC1 | 1 | -0.1
Cc1nn(-c2ccc(Cl)cc2Cl)c(C)c1CC(=O)N1CC[C@@H](N)C1 | -1 | 0.1
Cc1c(C(=O)N2CCC(O)(CN)CC2)sc2cc(F)ccc12 | -14 | 1.95

Compound | % Inhibition [%] | Z score
Cc1nn(C)cc1NC(=O)CN(C)Cc1ccoc1 | -6 | 1.17
C[C@@H]1CN(C(=O)C23CCC(CC2)C3)C[C@H](C)N1C | -5 | 0.86
O=C1C[C@@H](C(=O)Nc2scnc2-c2ccccc2)Oc2ccc(Cl)cc21 | 0 | 0.08
CC(=O)c1ccc(N2CCN(C(=O)Cn3cnc4onc(C)c4c3=O)CC2)cc1 | 2 | -0.33
CC(C)C[C@@H](CNC(=O)CC(=O)Nc1nccs1)N(C)C | -4 | 0.52
Cc1cc(F)c(S(N)(=O)=O)c(N[C@@H]2C=C[C@H](CO)C2)c1 | 21 | -2.65
CCOC(=O)c1nnn(Cc2ccccc2Cl)c1NC(=O)CN1CCN(C)CC1 | -8 | 0.99
CC(C)c1nnc(CNc2ccccc2C(=O)C2CCCC2)o1 | -13 | 1.08
O=C(Nc1ccc2oc(C3CC3)nc2c1)c1cncc(Br)c1 | -10 | 2.05
Cc1nn(CCc2nnc(-c3ccc4c(c3)OCO4)o2)c(C)c1Cl | 36 | -1.17
CC(NC(=O)CN(C)C(C)C)C(O)c1c(F)cccc1Cl (configuration not stated) | 39 | -3.97
CC(=O)c1cccc(NC(=O)N2C[C@H](c3nc(-c4ccccc4)no3)[C@@H](C)C2)c1 | 5 | -0.55
COC[C@H]1CN(C(=O)CCc2ccccc2)CC12CCOCC2 | -11 | 1.41
CC(C)NC(=O)NC[C@H]1CCN(Cc2ccc(-c3cc[nH]n3)o2)C1 | 8 | -1.09
Fc1cc2nc3c(nc2cc1F)CCC3 | -17 | 1.94
C[C@H]1Cc2ccccc2N1C(=O)c1nn(-c2cccc(Br)c2)c2c1CCC2 | -16 | 3.01
CCn1cc(CCN2C[C@@H]3CN(Cc4ccccc4)C[C@@H]3C2)cn1 | -9 | 1.18
c1cc(-c2noc(C3CCOCC3)n2)ccc1OC1CNC1 | -11 | 2.07
CC(C)c1cc([C@@H]2CCCN2S(=O)(=O)c2cccc(Cl)c2)no1 | -19 | 2.57
COc1cc2c(cc1C=Cc1cncc(C)n1)OCO2 | -34 | 3.99
